Lines with a small IC50 respond at low doses; a fit beyond the top or the lowest dose is shown as a bound at that dose. AUC is the area under the same curve over the 256-fold range up to the top dose, as a fraction: 1 means no effect, lower means more sensitive. Any top dose called inferred is not printed in the source and was worked back from the curve model. For some assays here: An entry number marks a drug with two screens in the source, which often give different values.

Compound in the first test: Cc1cc(N2CCOCC2)cc2[nH]c(-c3c(NC[C@@H](O)c4cccc(Cl)c4)cc[nH]c3=O)nc12 [BMS-536924]
The experiment in a line: Viability of human cancer cell lines after 72 h of drug (GDSC screen). The settings on record: top dose 4 µM; screen: GDSC drug entry 1091; top dose inferred. As for the experimental part: (§1)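 Human cancer cell lines in 384-well plates, medium with 10% serum, drug for 72 h over a 256-fold dose range (nine 2-fold or five 4-fold steps up to the top dose). Adherent lines were fixed and stained with the nucleic acid dye Syto60, suspension lines read with resazurin; signal relative to control wells, capped at 0 and 100%. One two-parameter sigmoid per drug and line, fitted in a mixed model over all curves with the slope shared within a line.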
Turning to Hs940-T (melanoma, adherent), the AUC amounted to 0.961 and the IC50 was above 4 µM.

Regarding JHOS-2 (ovary, adherent), the AUC was 0.952 and the IC50 is above 4 µM.

For JHOS-3 (ovary, adherent), the AUC turned out to be 0.888 and the IC50 is above 4 µM.

For MDA-MB-175-VII (breast, adherent), the AUC is 0.977 and the IC50 was above 4 µM.

In the case of NCC021 (kidney, adherent), the AUC is 0.905 and the IC50 is above 4 µM.

As to “NCI-H196 (small cell lung carcinoma, adherent)”, the AUC was 0.987 and the half-inhibitory concentration (IC50) was above 4 µM.

Regarding “NCI-H292 (lung adenocarcinoma, adherent)”, the AUC worked out at 0.612 and the IC50 is 0.543 µM.

On to “NCI-H441 (lung adenocarcinoma, adherent)”, for which the AUC is 0.86 and the IC50 was above 4 µM.

Regarding “NCI-H1915 (large cell lung carcinoma, adherent)”, the AUC amounted to 0.978 and the IC50 is above 4 µM.

Consider “NCI-H2122 (lung adenocarcinoma, adherent)”, for which the AUC worked out at 0.854 and the IC50 was determined as 2.83 µM.

Regarding OACp4C (oesophagus, adherent), the AUC stood at 0.663 and the IC50 was found to be 0.781 µM.

On to OV-7 (ovary, adherent), for which the AUC was determined as 0.821 and the IC50 is above 4 µM.

Consider OV-17R (ovary, adherent), for which the AUC came to 0.969 and the IC50 was above 4 µM.

In the case of OV-56 (ovary, adherent), the AUC worked out at 0.973 and the IC50 is above 4 µM.

Regarding OVCA420 (ovary, adherent), the AUC came out at 0.876 and the IC50 was above 4 µM.

Take OVCA433 (ovary, adherent): the AUC stood at 0.871 and the IC50 was above 4 µM.

Regarding OVK-18 (ovary, adherent), the AUC was found to be 0.96 and the IC50 is above 4 µM.

For PWR-1E (prostate, adherent), the AUC was 0.843 and the IC50 worked out at 2.81 µM.

For SCC-4 (head and neck, adherent), the AUC came out at 0.967 and the IC50 is above 4 µM.

Regarding SK-CO-1 (large intestine, adherent), the AUC came to 0.852 and the IC50 turned out to be 2.83 µM.

In the case of SK-GT-2 (stomach, adherent), the AUC worked out at 0.978 and the half-inhibitory concentration (IC50) was above 4 µM.

Regarding T-24 (bladder, adherent), the AUC was found to be 0.976 and the IC50 is above 4 µM.

Take U-2-OS (osteosarcoma, adherent): the AUC came to 0.907 and the IC50 is above 4 µM.

As to UWB1.289 (ovary, adherent), the AUC was 0.96 and the IC50 is above 4 µM.

Take VMRC-MELG (melanoma, adherent): the AUC is 0.923 and the IC50 is above 4 µM.

Consider WM278 (melanoma, adherent), for which the AUC came to 0.877 and the IC50 was above 4 µM.

Compound in another test: Cc1cccc(-c2[nH]c(C(C)(C)C)nc2-c2ccc3nccnc3c2)n1 [SB-525334]
The test is described as above. The settings on record: top dose 20 µM; top dose inferred. The procedure: as §1
As to A2058 (melanoma, adherent), the AUC was found to be 0.969 and the IC50 is above 20 µM.

In the case of ABC-1 (lung adenocarcinoma, adherent), the AUC was determined as 0.839 and the half-maximal inhibitory concentration (IC50) is 17.8 µM.

“DMS-53 (small cell lung carcinoma, adherent)”: the AUC was found to be 0.988 and the IC50 is above 20 µM.

Regarding DOV13 (ovary, adherent), the AUC was determined as 0.973 and the IC50 is above 20 µM.

Turning to “EMC-BAC-1 (lung adenocarcinoma, adherent)”, the AUC is 0.909 and the 50% inhibitory concentration (IC50) was above 20 µM.

As for “EMC-BAC-2 (lung adenocarcinoma, adherent)”, the AUC was found to be 0.973 and the IC50 is above 20 µM.

“EPLC-272H (lung squamous cell carcinoma, adherent)”: the AUC was determined as 0.947 and the IC50 was above 20 µM.

Take FLO-1 (oesophagus, adherent): the AUC was found to be 0.86 and the IC50 was above 20 µM.

As for G-MEL (melanoma, adherent), the AUC was determined as 0.784 and the IC50 is 8.41 µM.

With H2722 (mesothelioma, adherent), the AUC was 0.905 and the IC50 was above 20 µM.

Turning to H2803 (mesothelioma, adherent), the AUC came out at 0.937 and the IC50 is above 20 µM.

In the case of H2804 (mesothelioma, adherent), the AUC was determined as 0.967 and the IC50 was above 20 µM.

For the cell line HSC-4 (head and neck, adherent), the AUC was 0.964 and the IC50 was above 20 µM.

Regarding Hey (ovary, adherent), the AUC stood at 0.972 and the IC50 is above 20 µM.

In the case of Hs940-T (melanoma, adherent), the AUC turned out to be 0.984 and the IC50 was above 20 µM.

Consider JHOS-2 (ovary, adherent), for which the AUC came out at 0.738 and the IC50 was 6.82 µM.

Regarding JHOS-3 (ovary, adherent), the AUC was 0.979 and the IC50 was above 20 µM.

On to MDA-MB-175-VII (breast, adherent), for which the AUC is 0.981 and the IC50 was above 20 µM.

As for NCC021 (kidney, adherent), the AUC is 0.985 and the IC50 is above 20 µM.

In the case of “NCI-H196 (small cell lung carcinoma, adherent)”, the AUC amounted to 0.985 and the 50% inhibitory concentration (IC50) is above 20 µM.

As to “NCI-H292 (lung adenocarcinoma, adherent)”, the AUC turned out to be 0.907 and the IC50 was above 20 µM.

For “NCI-H441 (lung adenocarcinoma, adherent)”, the AUC was 0.975 and the IC50 is above 20 µM.

With “NCI-H1915 (large cell lung carcinoma, adherent)”, the AUC was found to be 0.798 and the IC50 came to 9.7 µM.

Turning to “NCI-H2122 (lung adenocarcinoma, adherent)”, the AUC was found to be 0.977 and the IC50 was above 20 µM.

In the case of OACp4C (oesophagus, adherent), the AUC stood at 0.691 and the IC50 turned out to be 4.81 µM.

Take OV-7 (ovary, adherent): the AUC stood at 0.921 and the IC50 was above 20 µM.

For OV-17R (ovary, adherent), the AUC was 0.877 and the IC50 is above 20 µM.

Consider OV-56 (ovary, adherent), for which the AUC came to 0.974 and the IC50 was above 20 µM.

Regarding OVCA420 (ovary, adherent), the AUC came to 0.932 and the IC50 was above 20 µM.

On to OVCA433 (ovary, adherent), for which the AUC is 0.957 and the IC50 is above 20 µM.

As to OVK-18 (ovary, adherent), the AUC stood at 0.977 and the IC50 was above 20 µM.

Consider SCC-4 (head and neck, adherent), for which the AUC was 0.984 and the IC50 was above 20 µM.

In the case of SK-CO-1 (large intestine, adherent), the AUC was 0.974 and the IC50 was above 20 µM.

For T-24 (bladder, adherent), the AUC came out at 0.988 and the IC50 was above 20 µM.

For the cell line U-2-OS (osteosarcoma, adherent), the AUC was found to be 0.98 and the concentration for half-maximal inhibition (IC50) was above 20 µM.

On to UWB1.289 (ovary, adherent), for which the AUC worked out at 0.918 and the IC50 is above 20 µM.

For the cell line VMRC-MELG (melanoma, adherent), the AUC turned out to be 0.874 and the IC50 was above 20 µM.

In the case of WM278 (melanoma, adherent), the AUC turned out to be 0.923 and the IC50 is above 20 µM.

Values taken from the supplement of paper PMC4967469.
